Experimental data taken from the supplement of paper PMC4604168 (melanoma cell lines).
Some of the results follow. Single values are uncertain, as repeats are few or missing.

Legend:
Assay in all cases: cell count relative to DMSO control; melanoma cells; higher = more viable cells
Conditions in all cases: library dose: low library concentration; 72 h
MZ2-MEL = tested on: MZ2-MEL
MeWo = tested on: MeWo
RPMI7951 = tested on: RPMI7951
RVH-421 = tested on: RVH-421
SkMel28 = tested on: SkMel28
SkMel2 = tested on: SkMel2
SkMel30 = tested on: SkMel30
SkMel5 = tested on: SkMel5
UACC257 = tested on: UACC257
UACC62 = tested on: UACC62
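Further: cell number obtained by counting DAPI-stained nuclei in high-throughput microscope images with image analysis software, screen run in 1,536-well plates.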

SMILES	cell count (MZ2-MEL) [%]	cell count (MeWo) [%]	cell count (RPMI7951) [%]	cell count (RVH-421) [%]	cell count (SkMel28) [%]	cell count (SkMel2) [%]	cell count (SkMel30) [%]	cell count (SkMel5) [%]	cell count (UACC257) [%]	cell count (UACC62) [%]
Nc1cccc2c1CN(C1CCC(=O)NC1=O)C2=O (stereo not given) [lenalidomide] + O=C(Nc1cccc(Cl)c1)Nc1ncc(CCNc2ncnc3ccsc23)s1 [SNS314] (first compound 1 µM, partner dose 0.0008 µM)	101	84.5	109	95.5	85.7	100	94.8	99.8	103	66.9
OCc1c[nH]c2ccccc12 [Indole-3-carbinol] + Cc1ccc(NC(=O)c2cccc(N(C)C)c2)cc1NC(=O)c1ccc(O)cc1 [ZM336372] (first compound 0.8 µM, partner dose 2 µM)	84.9	97.1	81.9	116	112	101	96.3	102	80.7	91.8
Clc1ccc(Nc2nnc(Cc3ccncc3)c3ccccc23)cc1 [vatalanib] + CC(C)(C)c1cnc(CSc2cnc(NC(=O)C3CCNCC3)s2)o1 [SNS-032] (first compound 2 µM, partner dose 0.01 µM)	90.8	90.9	70	84.3	78.4	88.3	101	94.6	66.2	77.9
Clc1ccc(Nc2nnc(Cc3ccncc3)c3ccccc23)cc1 [vatalanib] + COc1ccc2c(c1)CCC1C2CCC2(C)C(NCCCCCCN3C(=O)C=CC3=O)CCC12 [U73122] (first compound 2 µM, partner dose 0.4 µM)	77.8	69.3	59.7	94.2	68.1	0.0921	71.4	74.2	72.8	65.2
C#Cc1cccc(Nc2ncnc3cc(OCCOC)c(OCCOC)cc23)c1 [erlotinib] + NCC(=O)Nc1ccc(-n2nc(C(F)(F)F)cc2-c2ccc3c(ccc4ccccc43)c2)cc1 [OSU03012] (first compound 0.8 µM, partner dose 1 µM)	91.1	60.4	102	96.2	89.3	81.9	65.7	92.8	75.4	82.9
OCc1c[nH]c2ccccc12 [Indole-3-carbinol] + O=C(Nc1ccccc1)c1cc([N+](=O)[O-])ccc1Cl [GW9662] (first compound 0.8 µM, partner dose 2 µM)	95.7	99.3	104	105	89.1	101	105	107	100	84.2
COCC[n+]1c2c(n(Cc3cnccn3)c1C)C(=O)c1ccccc1C2=O + CO[C@@H]1[C@H](N(C)C(=O)c2ccccc2)C[C@H]2O[C@]1(C)n1c3ccccc3c3c4c(c5c6ccccc6n2c5c31)C(=O)NC4 [Midostaurin] (first compound 0.0004 µM, partner dose 0.08 µM)	31.6	78.8	60.1	83.2	92.4	64.7	74.3	57.1	85.1	88.3
C#Cc1cccc(Nc2ncnc3cc(OCCOC)c(OCCOC)cc23)c1 [erlotinib] + CN(NC(=O)CC(=O)NN(C)C(=S)c1ccccc1)C(=S)c1ccccc1 [STA4783] (first compound 0.8 µM, partner dose 0.006 µM)	102	78.4	97.1	84.7	111	107	105	97.8	87.7	84.3
O=C(CCCCCCC(=O)Nc1ccccc1)NO [vorinostat] + NC(=O)Nc1cc(-c2cccc(F)c2)sc1C(=O)N[C@H]1CCCNC1 [AZD7762] (first compound 0.08 µM, partner dose 0.02 µM)	105	96.7	73.6	92.4	83	117	97.6	106	128	91.5
Clc1ccc(Nc2nnc(Cc3ccncc3)c3ccccc23)cc1 [vatalanib] + Cn1cncc1[C@@](N)(c1ccc(Cl)cc1)c1ccc2c(c1)c(-c1cccc(Cl)c1)cc(=O)n2C [tipifarnib] (first compound 2 µM, partner dose 0.01 µM)	94.7	88.8	71.3	65.6	79	80.5	86.5	75.6	62.9	62.5
Cn1c(Nc2ccc(C(F)(F)F)cc2)nc2cc(Oc3ccnc(-c4ncc(C(F)(F)F)[nH]4)c3)ccc21 + CN(C)S(=O)(=O)c1ccc2c(c1)/C(=C/c1cc3c([nH]1)CCCC3)C(=O)N2 [SU6656] (first compound 0.08 µM, partner dose 0.4 µM)	70.6	51	60.1	66	49.6	76.6	41.2	65.1	54.7	47.6
Nc1cccc2c1CN(C1CCC(=O)NC1=O)C2=O (stereo not given) [lenalidomide] + CN(NC(=O)CC(=O)NN(C)C(=S)c1ccccc1)C(=S)c1ccccc1 [STA4783] (first compound 1 µM, partner dose 0.006 µM)	105	81.6	115	88.5	80.1	93.1	117	95.4	77.6	74.1
C#Cc1cccc(Nc2ncnc3cc(OCCOC)c(OCCOC)cc23)c1 [erlotinib] + NC(=O)Nc1cc(-c2cccc(F)c2)sc1C(=O)N[C@H]1CCCNC1 [AZD7762] (first compound 0.8 µM, partner dose 0.02 µM)	106	94.5	81	131	104	116	73.3	120	105	79.7
Cn1c(Nc2ccc(C(F)(F)F)cc2)nc2cc(Oc3ccnc(-c4ncc(C(F)(F)F)[nH]4)c3)ccc21 + O=C(O)c1ccc(-c2c[nH]c3ncc(-c4ccccc4)cc23)cc1C1CCCC1 [GSK650394] (first compound 0.08 µM, partner dose 0.16 µM)	71.9	70.2	61.6	69.8	52.6	78.1	44.4	68.4	40.6	56.8
C#Cc1cccc(Nc2ncnc3cc(OCCOC)c(OCCOC)cc23)c1 [erlotinib] + Cc1ccc(NC(=O)c2cccc(N(C)C)c2)cc1NC(=O)c1ccc(O)cc1 [ZM336372] (first compound 0.8 µM, partner dose 2 µM)	74.6	109	96.9	102	101	112	85	94	81.4	96.7
Nc1cccc2c1CN(C1CCC(=O)NC1=O)C2=O (stereo not given) [lenalidomide] + CC(C)(C)c1cnc(CSc2cnc(NC(=O)C3CCNCC3)s2)o1 [SNS-032] (first compound 1 µM, partner dose 0.01 µM)	98.2	112	97.6	83.9	79.5	80.5	118	108	81	91.3
OCc1c[nH]c2ccccc12 [Indole-3-carbinol] + OCCn1cc(-c2cnc3nnn(Cc4ccc5ncccc5c4)c3n2)cn1 [PF04217903] (first compound 0.8 µM, partner dose 1 µM)	112	102	100	134	95.7	96.5	102	114	116	95.3
C#Cc1cccc(Nc2ncnc3cc(OCCOC)c(OCCOC)cc23)c1 [erlotinib] + C[C@@H]1CCN(C(=O)CC#N)C[C@@H]1N(C)c1ncnc2[nH]ccc12 [CP690550] (first compound 0.8 µM, partner dose 1 µM)	91	93.2	90.1	95.7	110	102	90.8	109	93.8	94.5
OCc1c[nH]c2ccccc12 [Indole-3-carbinol] + Oc1cc(-c2nc(-c3ccccc3)[nH]c2-c2ccncc2)ccc1Cl [L779450] (first compound 0.8 µM, partner dose 0.2 µM)	71.4	112	93	81.5	82.4	104	87	95.7	75.7	85.5
Clc1ccc(Nc2nnc(Cc3ccncc3)c3ccccc23)cc1 [vatalanib] + N#Cc1c(O)c2c(-c3ccc(-c4ccccc4O)cc3)csc2[nH]c1=O [A769662] (first compound 2 µM, partner dose 2 µM)	104	76.6	85.8	114	93.7	93.9	87.2	95.1	83.1	107
OCc1c[nH]c2ccccc12 [Indole-3-carbinol] + O=C1NC(=O)/C(=C/c2ccc(-c3ccc(F)cc3O)o2)S1 [AS252424] (first compound 0.8 µM, partner dose 1 µM)	96.9	90.8	108	22.5	71.5	94.6	88.7	103	83.9	102
Clc1ccc(Nc2nnc(Cc3ccncc3)c3ccccc23)cc1 [vatalanib] + Oc1nc(-c2ccc(C(F)(F)F)cc2)nc2c1CSCC2 [XAV939] (first compound 2 µM, partner dose 2 µM)	94.5	86	70.6	89.9	96.1	104	113	81.1	76.3	84.8
